# Experimental data from PubChem BioAssay AID1345083 (National Center for Advancing Translational Sciences (NCATS), 2018).
# About 6,200 (6.6%) of roughly 94,000 compounds were called active. The inconclusive results got no clear call from the source; some entries with a clear call stand among them for comparison. The call rests on the fitted dose curve; in most records, active means well fitted inhibition curve with a large enough effect; inconclusive means small, poorly fitted or top-dose-only effect; inactive means flat fitted curve, though single readings scatter. Potencies beside an inconclusive call are fits to weak or partial responses and may not hold up.
# Experiment: Cytotoxic Profiling in HEK 293 Cell Line of Diverse Libraries Using Quantitative High-Throughput Screening; further: nearly all actives have a fitted effect of over 60% in size
# Details: HEK 293 viability, ATP luminescence (CellTiter-Glo), 48-72 h; series mostly up to 115 µM; activity change, negative = cytotoxicity: at the top concentration
# In short: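 Luminescence from cellular ATP, measured with CellTiter-Glo, indicates HEK 293 viability. Cells plated at 250 cells/well are treated with compound for 48 or 72 hr at 37 degree Celsius before reagent addition.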
# On the % scale 0 is the no-effect control and ±100 the full control effect; potency means the concentration at half of the fitted maximal effect; tags describe the fitted curve by direction and shape.
SMILES,"activity change, negative = cytotoxicity",Potency,outcome
CC[C@H]1CN2CC[C@H]1C[C@@H]2CNC(=O)c1ccccc1,inactive: -5.66% [at 230 µM],,
COc1ccc(OC)c(-c2cnc3[nH]cc(CC(=O)N4CCN(C)CC4)c3c2)c1,,"inconclusive: 100 µM [inhibitor, partial curve, poor fit]",
O=C1Nc2ccccc2CNC12CCN(Cc1ccncc1)CC2,,,inactive
O=C(O)C1CN(Cc2ncc[nH]2)CCN(C(=O)Cc2cccs2)C1 (configuration not stated),,"inconclusive: 20 µM [inhibitor, full curve, poor fit]",
CCOC(=O)[C@H]1CN(C(=O)Nc2ccc3c(c2)OCO3)[C@]2(C)C(=O)N(CC3CC3)c3ccccc3[C@H]12,,active: 35.5 µM,
COc1cc2c(cc1OCc1ccccc1)N([S+](=O)([O-])c1cn(C)cn1)CC21CCN(C)CC1,,"inconclusive: 56.2 µM [inhibitor, partial curve, poor fit]",
c1cc(CC2CN3CCCC3CN2)cs1 (configuration not stated),,,inactive [at 230 µM]
O=[N+]([O-])c1ccc(Cl)nc1N1CC2CCC(C1)N2CC(F)(F)F,,active: 39.8 µM,
CN1C(=O)CO[C@H]2CN(C3CCC3)C[C@H]21,inactive: -9.35% [at 287 µM],,
CC(C)CN1Cc2ccccc2-n2ccnc2C12CCN(C(=O)c1cccs1)CC2,,active: 44.7 µM,
Cc1cnc(C(=O)N2[C@H]3CC[C@@H]2c2cnc(-c4ccc(F)cc4)nc2C3)cn1,,"inconclusive: 79.4 µM [inhibitor, partial curve, poor fit]",
O=C(c1ccc(F)cc1)N1C[C@@H]2C[C@H](C1)c1c(/C=C/c3ccc(Cl)cc3)ccc(=O)n1C2,,"inconclusive: 44.7 µM [inhibitor, partial curve, poor fit]",
Cc1nc(-c2ccc(N(C)C)cc2)cc([C@H]2CN3CC[C@H]2C[C@@H]3COC(=O)Nc2ccc(C(C)C)cc2)n1,,active: 3.55 µM,
O=C(NCc1cccnc1)[C@H]1CN2CC[C@H]1C[C@@H]2Cn1cc(-c2ccccc2)nn1,,,inactive [at 172 µM]
CN1CCC2(CC1)CNCc1ccccc1O2,inactive: -33.6%,,
COc1cc2c(cc1OCC1CCCC1)N([S+](=O)([O-])c1ccc(Oc3ccccc3)cc1)CC21CCN(CC(=O)O)CC1,,"inconclusive: 89.1 µM [inhibitor, single point]",
CCc1cnc(N2CCC3(CC2)C(=O)Nc2cc(OCC4CC4)c(OC)cc23)nc1,,active: 112 µM,
CCNC(=O)NC[C@H]1C[C@@H]2CCN1C[C@@H]2c1cc(-c2ccc3ccccc3c2)nn1C,,active: 39.8 µM,
C=CCN(C)C(=O)[C@H]1CN2CCC1C[C@@H]2Cn1cc(COC)nn1 (some centres not stated),,,inactive [at 172 µM]
COc1ccccc1C(=O)N1[C@H]2CC[C@@H]1c1cnc(-c3ccc(F)cc3)nc1C2,,"inconclusive: 22.4 µM [inhibitor, partial curve, poor fit]",
CN(Cc1ccccc1)C[C@H]1CN2CC[C@H]1C[C@@H]2CNC(=O)c1ccccc1,,"inconclusive: 112 µM [inhibitor, single point]",

SMILES,"activity change, negative = cytotoxicity",Potency,outcome
COc1ccccc1-c1cc([C@H]2CN3CC[C@H]2C[C@@H]3COC(=O)Nc2ccc(C(C)C)cc2)n(C)n1,,active: 28.2 µM,
O=C(O)C1=NOC2CN(CC3CCCCC3)CC12 (configuration not stated),,,inactive [at 172 µM]
C=C[C@H]1CN2CC[C@H]1C[C@@H]2CNS(=O)(=O)c1ccc2ccccc2c1,,active: 112 µM,
COc1cccc(N2CC3CCC(C2)N3CC(F)(F)F)n1,inactive: -1.65%,,
COc1cc2c(cc1OCc1ccncc1)NC(=O)C21CCN(Cc2cccc(O)c2)CC1,,"inconclusive: 56.2 µM [inhibitor, partial curve, poor fit]",
O=C(c1ccccc1)N1C[C@@H]2C[C@H](C1)c1c(-c3ccc(Cl)cc3)ccc(=O)n1C2,inactive: -22.2% [at 172 µM],,
Cn1nc(-c2ccc(F)cc2)cc1[C@H]1CN2CC[C@H]1C[C@@H]2CNC(=O)c1ccc2c(c1)OCO2,,"inconclusive: 50.1 µM [inhibitor, partial curve, poor fit]",
O=C(NCc1ccccc1)[C@H]1CN2CCC1C[C@@H]2Cn1cc(-c2ccc(F)cc2)nn1 (some centres not stated),,"inconclusive: 126 µM [inhibitor, single point]",
O=C(Cc1ccccn1)N1CCN(Cc2ccccc2-c2ccccc2F)CC1,,"inconclusive: 31.6 µM [inhibitor, partial curve, poor fit]",
O=C(NC[C@H]1C[C@@H]2CCN1C[C@@H]2CN1C[C@@H]2C[C@H](C1)c1cccc(=O)n1C2)c1ccc(C(F)(F)F)cc1,,"inconclusive: 100 µM [inhibitor, single point]",
Cc1nc(-c2ccco2)cc([C@H]2CN3CC[C@H]2C[C@@H]3CNC(=O)NC2CCCCC2)n1,,"inconclusive: 112 µM [inhibitor, partial curve]",
Cn1cccc1CN1CCC2(COc3ccncc3[S+](=O)([O-])N2)C1 (configuration not stated),inactive: -7.93%,,
COc1ccc(CNC[C@H]2C[C@@H]3CCN2C[C@@H]3c2cc(-c3ccc4ccccc4c3)nn2C)cc1,,"inconclusive: 20 µM [inhibitor, full curve, poor fit]",
COc1cc2c(cc1Oc1ccccc1)NC(=O)C21CCN(c2nc(C)cc(C)n2)CC1,,"inconclusive: 63.1 µM [inhibitor, full curve]",
Cc1ccc(CNC(=O)N2[C@H]3CC[C@@H]2c2cncnc2C3)cc1,,,inactive
COc1cc2c(cc1OCc1ccccc1)NC(=O)C21CCN(c2ccnc(C)n2)CC1,,active: 28.2 µM,
C#C[C@H]1CN2CC[C@H]1C[C@@H]2CNC(=O)Nc1cccc(C(F)(F)F)c1,,"inconclusive: 126 µM [inhibitor, single point]",
COc1ccc(C(=O)N2[C@H]3CC[C@@H]2c2cnc(-c4ccccc4)nc2C3)c(OC)c1,,"inconclusive: 50.1 µM [inhibitor, partial curve, poor fit]",
CN1Cc2ccccc2-n2ccnc2C12CCN(C(=O)C1(c3ccccc3)CC1)CC2,,"inconclusive: 14.1 µM [inhibitor, full curve]",
CN(C)C(=O)[C@H]1CN2CCC1C[C@@H]2Cn1cc(-c2ccc(-c3ccccc3)cc2)nn1 (some centres not stated),inactive: -17.4% [at 172 µM],,
CC[C@H]1CN2CC[C@H]1C[C@@H]2CNC(=O)c1ccco1,,,inactive [at 230 µM]
